Measurements reported in PubChem BioAssay AID493208 (National Center for Advancing Translational Sciences (NCATS), 2011).
Out of some 44,000 compounds screened, about 340 (0.77%) were called active. Inconclusive results (about 5%) are left out. The call rests on the fitted dose curve; in most records, active means well fitted inhibition curve with a large enough effect; inconclusive means small, poorly fitted or top-dose-only effect; inactive means flat fitted curve, though single readings scatter. This is one part of the list.

Assay: Acumen qHTS Assay for Inhibitors of the mTORC1 Signaling Pathway in MEF (Tsc2-/-, p53-/-) Cells: Sytravon;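 further: plate controls were DMSO for no effect and rapamycin for full effect; nearly all actives have a fitted effect of over 50% in size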
Conditions: phospho-rpS6 immunofluorescence/PI, 24 h; series mostly up to 38.3 µM; activity change, negative = inhibition: at the top concentration
Procedure, shortened: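 Compounds act on Tsc2-/-, p53-/- fibroblasts carrying an empty vector for 24 h before fixation and dual staining for phospho-S6 and DNA (propidium iodide). Values are percentages of cells above a rapamycin-defined pS6/PI threshold.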

Activity change, negative = inhibition, inactive:
COCCn1c(CCC(=O)Nc2ccc(C)c(Cl)c2)nc2cccnc21 0.757%
Cc1c(Cl)cccc1NC(=O)Cn1cc(C(=O)C2CCCCC2)c2ccccc21 -22.8%
CCSc1ncc(Cl)c(C(=O)Nc2ccc(S(=O)(=O)N3CCC(C)CC3)cc2)n1 -16.6%
Clc1ccc2nc(NCc3ccccc3)c3nncn3c2c1 0.677%
COc1ccccc1CNC(=O)CCc1c(C)nc2c(c(C)nn2-c2ccc(C)c(C)c2)c1C -13.2%
CC1CCC(NC(=O)c2ccc3c(c2)N(Cc2ccccc2)C(=O)c2ccccc2S3(=O)=O)CC1 (stereo unspecified) -2.53%
CCCCn1c(=N)c(S(=O)(=O)c2ccc(Cl)cc2)cc2c(=O)n3cccc(C)c3nc21 -14%
CC(C)(C)OC(=O)N1CCC(c2c(C(=O)NCc3ccccc3)cnn2-c2ccccc2)CC1 3.13%
CCc1ccc(CNC(=O)c2cc3c(=O)n(CC)c4ccccc4c3s2)cc1 -7.38%
Cc1cccc(Nc2c(-c3cccs3)nc3nc(C)cc(C)n23)c1 -19%
O=C(NC(=O)c1ccccc1)Nc1ccc(-n2nc(C(F)(F)F)cc2C(F)(F)F)cc1 -2.02%
COc1ccc(NC(=O)CN(C)S(=O)(=O)c2ccc3c(c2)CCC(=O)N3)c(OC)c1 -14.1%
COc1ccc(OC)c(NC(=O)Cn2c(=O)n(CC3CCCO3)c(=O)c3cc(OC)c(OC)cc32)c1 (stereo unspecified) -19.3%
CCOc1ccccc1CNC(=O)CN1C(=O)CSc2ccc(S(=O)(=O)N3CCOCC3)cc21 9.98%
CCc1ccc(NC(=O)CSc2nc3c(sc4ccccc43)c(=O)n2CCCOC)cc1 -5.54%
Cc1ccc(CNC(=O)c2cnc(N3CCCCC3)c3ccccc23)cc1 -0.0959%
O=C(c1ccc2c(c1)CCN2S(=O)(=O)c1ccccc1)N1CCN(c2cccc(Cl)c2)CC1 -9.71%
CCOC(=O)CNc1nc2ccccc2n2c(C)nnc12 -0.369%
Cc1ccc(C)c(OCCn2cc(C(=O)c3cccs3)c3ccccc32)c1 -0.0726%
O=[N+]([O-])c1ccc(S(=O)(=O)NCc2nc3cccnc3n2Cc2ccccc2Cl)cc1 -5.16%
Cc1cccc(C(=O)N2CCc3cc(CNC(=O)c4ccc(Br)o4)ccc32)c1 -4.35%
COc1ccc(C)cc1NC(=O)Cn1c(=O)nc(-c2ccccc2F)c2cc(Cl)ccc21 0%
COC(=O)c1cc(NC(=O)C2CCCN(S(=O)(=O)c3c(C)n[nH]c3C)C2)cc(C(=O)OC)c1 (stereo unspecified) 0.385%
O=c1nc2c(-c3ccc(F)cc3Cl)n[nH]n2c2ccccc12 0.674%
Cc1c(C(=O)OCC2CCCCC2)[nH]c2c1C(=O)CC(c1ccc(F)cc1)C2 (stereo unspecified) 1.15%
N#Cc1cccc(Nc2ncnc3c2cnn3-c2cccc(Cl)c2)c1 -13%
Cc1ccc(Cl)cc1-n1ncc2c(NC3CCCCC3)ncnc21 -0.334%
Cc1cccc2sc(N3CCN(C(=O)CS(=O)(=O)c4ccc(F)cc4)CC3)nc12 -5.86%
O=C(CSc1nncn2c1cc1occc12)Nc1ccccc1C(F)(F)F -22.5%
CCc1ccccc1NC(=O)CN(c1cccc(C)c1C)S(C)(=O)=O 2.08%
Cc1ccc(C(=O)O)cc1-n1c(C)ccc1-c1ccccc1 4.26%
CCOC(=O)c1c(C)[nH]c(CCC(=O)Nc2c(Cl)cc(OC)cc2OC)c1C -0.689%
CCCc1nc2nc(C)c(NS(=O)(=O)c3ccc(F)cc3)c(=O)n2[nH]1 -0.0824%
Cc1cc(C(=O)N2CCN(c3ccc(F)cc3)CC2)c2c(C)nn(-c3cccc(Cl)c3C)c2n1 -0.196%
CCc1ccc(S(=O)(=O)c2cnc3ccc(OC)cc3c2N2CCCC(C)C2)cc1 (stereo unspecified) -4.88%
COc1cc(OC)c2c(C)c(CC(=O)NCCc3ccccc3OC)c(=O)oc2c1 0.324%
COc1ccc(CNC(=O)Cn2c(=O)nc(-c3ccccc3F)c3cc(Cl)ccc32)cc1OC 13.6%
COC(=O)c1cccc(Nc2c(-c3ccc(OC)cc3)nc3nc[nH]n23)c1 -7.85%
CCOC(=O)c1ccc(NC(=O)C(CC)Sc2nnc3c4ccccc4n(C)c3n2)cc1 (stereo unspecified) 3.65%
Cc1ccc(C)c(NC(=O)Cn2nnc(C(=O)NCCc3ccccc3)c2N)c1 4.04%
CCOC(=O)c1cc(NC(=O)c2ccccc2)c(=O)n2c1oc1ccc(Cl)cc12 -6.41%
CCOc1ccccc1CNS(=O)(=O)c1ccc(-c2cnc(C3CC3)o2)cc1 -9.55%
COc1ccc(-c2noc(-c3nnn(-c4ccc(C)cc4C)c3C)n2)cc1 0%
COc1ccc(NC(=O)CSC2=Nc3ccccc3C3=NC(CCC(=O)NC4CCCCC4)C(=O)N23)cc1Cl (stereo unspecified) 3.23%
COc1ccc(S(=O)(=O)c2cn(C)c3cc(N4CCCCCC4)c(F)cc3c2=O)cc1 -7.13%
O=C(Nc1cc(F)ccc1F)C1CCN(C(=O)c2cnn(-c3ccccc3)c2-n2cccc2)CC1 2.94%
Cc1ccc(NC(=O)CSc2nncn2C)c(C)c1 0.74%
COc1ccc(Cl)c2sc(NC(=O)c3ccc(S(=O)(=O)N4CCCC4)cc3)nc12 6.65%
COc1ccccc1NC(=O)CSCc1cc(=O)c2cccc(Cl)c2[nH]1 0.278%
COc1ccc(OC)c(C2CC(=O)Nc3c2c(=O)n(C)c2ncnn32)c1 (stereo unspecified) 1.09%
O=C(CSC1=Nc2ccccc2C2=NC(Cc3ccccc3)C(=O)N12)Nc1cccc(Cl)c1 (stereo unspecified) 0%
COc1ccccc1Cn1c(C2CC(=O)N(c3ccccc3OC)C2)nc2ccccc21 (stereo unspecified) 0.958%
CCc1ccc2occ(CC(=O)Nc3c(C(=O)c4ccccc4)oc4ccccc34)c2c1 1.05%
CCOC(=O)c1c(-c2ccccc2)oc2ccc(NS(=O)(=O)c3ccc(C)cc3)cc12 -13.1%
Cc1ccc(CNC(=O)c2cc3sc(Cl)cc3n2C)cc1 -1.35%
CCOC(=O)c1c(C)oc2ccc(N(C(=O)c3ccncc3)S(=O)(=O)c3ccc(F)cc3C)cc12 -4.71%
Cc1ccc2nc(-c3ccc(Cl)c(NC(=O)COc4ccc([N+](=O)[O-])cc4)c3)oc2c1 -1.5%
Cc1cccc(CS(=O)(=O)Cc2ccc(C(=O)NCc3ccc(F)cc3)o2)c1 5.91%
COc1cccc(NC(=O)c2cnc(SCC(=O)N3CCCc4ccccc43)n(C)c2=O)c1 -11%
CCN(C(=O)c1cc2c(=O)oc3ccccc3c2s1)c1ccccc1F -8.79%
Cc1noc(-c2ccc(-c3noc(-c4ccc(Cl)cc4)n3)cc2)n1 0.363%
Cc1ccc(C)c(CN2CCCN(Cc3ccccc3C)S2(=O)=O)c1 0.681%
Cc1cc(C)cc(NC(=O)CN2C(=O)c3ccccc3Sc3ccc(C(=O)N4CCCC4)cc32)c1 -9.71%
O=C(CN1C(=O)CCc2cc(Br)ccc21)Nc1ccc(OC(F)(F)F)cc1 -10.3%
CCOC(=O)c1ccc(Nc2c(-c3ccc(N(C)C)cc3)nc3nc[nH]n23)cc1 -11%
COc1cccc(CNC(=O)c2nn(C)c3c2CSc2ccccc2-3)c1 1.55%
COc1ccc(NC(=O)c2cnc3cc(C)ccn3c2=O)c(OC)c1 -8.98%
COc1ccc(Cn2c(=O)n(-c3ccc(C)cc3)c(=O)c3c2c2cc(C)ccc2n3C)cc1 -4.39%
COc1ccc(C)cc1NC(=O)Cn1nc(N2CCN(c3ccccc3OC)CC2)ccc1=O -11.3%
COc1ccccc1Cc1nc2ccccc2nc1SCC(=O)NCc1ccc(C)cc1 -4.4%
COc1ccccc1CNC(=O)C(=O)NCC(c1cccnc1)N1CCN(c2ccccc2)CC1 (stereo unspecified) 12%
Cc1noc(C)c1S(=O)(=O)N(CC(=O)NCc1ccccc1)c1ccc(C(C)C)cc1 -0.157%
O=C(COCc1cc(-c2ccco2)on1)Nc1cc(Cl)ccc1O -19.3%
COc1ccc(-c2nc(SCC(=O)NC3CCCC3)c(-c3ccc(F)cc3)[nH]2)cc1OC -18.4%
O=C(Nc1ccc2oc(-c3cccnc3)nc2c1)c1ccccc1F -10.2%
COCCNC(=O)CCn1nc(-c2ccc(Cl)cc2)c2ccccc2c1=O -0.306%
CC(=O)N1CCCc2cc(S(=O)(=O)Nc3ccc(Cl)cc3F)ccc21 -0.939%
COc1ccc(CC(=O)N2CCc3c([nH]c4ccccc34)C2c2ccc(SC)cc2)cc1 (stereo unspecified) -17.1%
CC1CCN(C(c2ccc(F)cc2)c2sc3nc(-c4ccco4)nn3c2O)CC1 (stereo unspecified) -6.24%
COc1ccc(-c2nc3ccccc3s2)cc1NC(=O)c1cc(OC)c(OC)c(OC)c1 -11.4%
COc1ccc(C(=O)N2CCN(C(=O)COc3ccccc3)CC2)cc1OC -1.15%
O=C(c1ccc2c(c1)N(Cc1ccccc1)C(=O)c1ccccc1S2(=O)=O)N1CCOCC1 -4.01%
COc1ccc(NC(=O)C(NC(=O)/C=C\c2ccc3c(c2)OCO3)c2ccc(C)cc2)cc1 (stereo unspecified) -1.26%
CCc1ccc(-n2c(N3CCN(c4ccc(F)cc4)CC3)nc3ccccc3c2=O)cc1 -8.88%
COc1ccc(-c2nc3n(n2)C(c2ccc(O)cc2)C(C(=O)Nc2cccnc2)=C(C)N3)cc1OC (stereo unspecified) -4.56%
O=C(Nc1cccc(Br)c1)c1cc(S(=O)(=O)N2CCCCC2)c[nH]1 -6.08%
Cc1cc(S(=O)(=O)Nc2cc3c(cc2N2CCOCC2)n(C)c(=O)c(=O)n3C)ccc1F 0.152%
Cc1cccc(C(=O)N2CCc3cc(CNC(=O)c4ccco4)ccc32)c1 -3.66%
CCCNC(=O)c1ccc(Cn2c(SCC(=O)NC(C)C)nc3ccccc3c2=O)cc1 -0.293%
CCOc1ccc(CCNC(=O)NCc2noc3ccc(C)cc23)cc1 -0.69%
COC(=O)CN1C(=O)C(O)(c2c(C)[nH]c3ccccc23)c2ccccc21 (stereo unspecified) -21.3%
COc1ccccc1CNc1nccn(-c2ccc(F)cc2)c1=O 6.02%
CCCn1c2ccccc2c2cnn(CC(=O)NCC3CCN(Cc4ccccc4C)CC3)c(=O)c21 -2.76%
COc1ccc(C(=O)Nc2nc(-c3ccc(Br)cc3)ns2)cc1 -8.78%
Cc1csc2nc(COc3ccc(NC(=O)c4ccccc4F)cc3)cc(=O)n12 -5.15%
COc1ccc(NC(=O)Cn2c(=O)c3cccn3c3ccccc32)cc1 -18.8%
